Experimental data: patent publication US20020034767

Legend:
[1] = tested on: G protein βγ subunits
[2] = tested on: T1, peptide RRREEESEEE
T1 sequence: RRREEESEEE

[3] = tested on: T2, peptide RRREEESGGG
T2 sequence: RRREEESGGG

G protein-coupled receptor kinase GRK5 (human) (sequence not shown)
rhodopsin phosphorylation in the presence or absence of 100 nM G protein βγ subunits [1]: the ability of GRK5 to phosphorylate rhodopsin is not affected by G protein βγ subunits
peptide phosphorylation [2]: These peptides are not phosphorylated by GRK5
peptide phosphorylation [3]: These peptides are not phosphorylated by GRK5
